Measurements as given in PubChem BioAssay AID1745845 (National Center for Advancing Translational Sciences (NCATS), 2022).
In all, about 360,000 compounds went through this assay and about 2,600 (0.72%) were called active. Inconclusive means that the source gave no clear call. Such entries were picked first, then a sample of the others. Calls follow the shape of the dose curve; as a rule, active = well fitted inhibition curve with a large enough effect; inconclusive = small, poorly fitted or top-dose-only effect; inactive = no such curve, though single readings can be large or run the other way. Potencies beside an inconclusive call are fits to weak or partial responses and may not hold up.

assay: Primary qHTS for Inhibitors of ATXN expression; conditions: HEK-293 ATXN2-luciferase reporter, luminescence, 24 h; activity change, negative = inhibition: at 57 µM (top of the series); also: nearly all actives have a fitted effect of over 55% in size
How it was run: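 qHTS (up to 57 uM final) was run with 24 h compound exposure of reporter cells at 37 °C. Each well was multiplexed: SteadyGlo luminescence measured ATXN2-luciferase expression after a fluorogenic Gly-Phe-AFC viability readout (25 uM final).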
% is scaled to controls: 0 for no effect and ±100 for the full control effect; potency is read from the fitted curve at half-maximal effect; tags tell the direction and shape of the fitted curve.

Potency, inconclusive:
COc1cc(CCCN2C(=S)NC[C@@H]2CC2CCCCC2)cc(OC)c1OC 31.6 µM [inhibitor, single point], CC(C)(C)OC(=O)[C@H](Cc1ccccc1)NC(=O)c1[nH]cnc1C(=O)Nc1ccc(Cl)cc1 39.8 µM [inhibitor, single point], O=C(Cn1cc(S(=O)(=O)N2CCN(c3ccccc3F)CC2)c2ccccc2c1=O)NCCCN1CCCCCC1 11.2 µM [inhibitor, partial curve, poor fit], Cc1ccc2c(c1)-c1c(cnn1CC(=O)N(Cc1ccco1)C1CCCCC1)CO2 37.7 µM [inhibitor, single point], COc1cc2nc(N(C)C)nc(N)c2cc1OC 22.4 µM [inhibitor, partial curve, poor fit], CCCC[C@@H](CNC)NC[C@H](Cc1ccc(O)cc1)NCCc1ccc(OCC)cc1 25.1 µM [inhibitor, single point], C=CC[C@H](CC(=O)N[C@H](CO)Cc1ccccc1)C(=O)N[C@@H](COC(=O)[C@H](CC=C)CC(=O)OC(C)(C)C)Cc1c[nH]c2ccccc12 39.8 µM [inhibitor, single point], COc1ccc(S(=O)(=O)Cc2ccc(C(=O)N3CCN(c4cc(C)ccc4C)CC3)o2)cc1 28.2 µM [inhibitor, partial curve, poor fit], CC(=O)Oc1ccc2ccccc2c1C(NC(=O)Cc1ccccc1)c1ccccc1 (stereo not given) 39.8 µM [inhibitor, single point], C[C@H](CO)N1C[C@H](C)[C@@H](CN(C)Cc2ccc(-c3ccccc3)cc2)Oc2c(NC(=O)c3ccncc3)cccc2C1=O 28.2 µM [inhibitor, single point], CC(C)c1cc2c(c(O)c1O)[C@@]13CCCC(C)(C)C1CC2OC3=O (stereo not given in full) 39.8 µM [inhibitor, single point], COc1ccc(S(=O)(=O)Nc2ccc(F)cc2)cc1N(C)S(=O)(=O)c1ccc(Cl)cc1 15.8 µM [inhibitor, partial curve], O=C(NNC(=O)c1cc(OCC(F)(F)F)ccc1OCC(F)(F)F)c1ccc(Cl)c(Cl)c1 12.6 µM [inhibitor, partial curve, poor fit], NNC(=O)C1CCCN1S(=O)(=O)c1ccc(Cl)cc1 (stereo not given) 0.752 µM [inhibitor, full curve, poor fit], O=C(NNC(=S)NC(=O)c1cccs1)c1ccc(NC(=O)c2ccccc2)cc1 11.2 µM [inhibitor, partial curve, poor fit], COc1ccc2c(Oc3ccc(NC(=O)c4c(C)n(CC(C)(C)O)n(-c5ccccc5)c4=O)cc3F)ccnc2c1 24.3 µM [inhibitor, partial curve], CCC(Oc1cc(Cl)ccc1Cl)C(=O)NN1C(=O)C2C3CCC(C3=C(C)C)C2C1=O (stereo not given) 31.6 µM [inhibitor, partial curve, poor fit], COc1ccc(NS(=O)(=O)c2ccc3c(c2)CCCN3C(=O)C2CCC2)cc1OC 5.01 µM [inhibitor, partial curve, poor fit], COc1cccc(/C=N/NC(=O)CSc2nnc(C)n2-c2ccccc2)c1O 28.2 µM [inhibitor, single point], Cc1nc2c(OCc3cc(Cl)cc(Cl)c3)cccn2c1N(C)C(=O)CCC1CCCC1 20 µM [inhibitor, single point], COc1cc2c(cc1OC)CN(c1nc(-c3cccnc3)nc3ccccc13)CC2 21.2 µM [inhibitor, single point], COCCNC(=O)c1ccc2c(c1)N(Cc1ccc(C(F)(F)F)cc1)C(=O)c1ccccc1S2 22.4 µM [inhibitor, single point], CC(C)COc1cccc(C(=O)N(CC(=O)Nc2ccccc2C(F)(F)F)Cc2ccco2)c1 39.8 µM [inhibitor, single point], Cc1ccc(C)c(OCC(=O)Nc2nonc2NC(=O)COc2cc(C)ccc2C)c1 39.8 µM [inhibitor, partial curve, poor fit], O=C1C2C3C=CC(C3)C2C(=O)N1/N=C/c1cn(Cc2ccc(F)cc2)c2ccccc12 (stereo not given) 25.1 µM [inhibitor, partial curve, poor fit], Cc1ccc(Nc2nc(NCc3ccccc3)nc3ccsc23)c(C)c1 20 µM [inhibitor, partial curve], CC(=O)Nc1cccc(-c2csc(Nc3cc(C)ccn3)n2)c1 39.8 µM [inhibitor, single point], Cn1c(CO)c(-c2ccccc2)c2cc([N+](=O)[O-])ccc21 20 µM [inhibitor, partial curve], CCCC[C@@H]1CNCCN1CCc1cccc2ccccc12 17.8 µM [inhibitor, partial curve, poor fit], O=C(CSc1ccc(C(F)(F)F)cc1[N+](=O)[O-])Nc1ccccc1 39.8 µM [inhibitor, single point], Cn1c(=O)c2c(nc(SCC(=O)NCc3ccc4c(c3)OCO4)n2Cc2ccc(F)cc2)n(C)c1=O 28.2 µM [inhibitor, partial curve, poor fit], CCn1c(=O)cc(OCC(=O)Nc2ccc(C)cn2)c2ccccc21 15.8 µM [inhibitor, partial curve, poor fit], Cc1c(Cl)cccc1NC(=S)NCCc1ccc(Cl)cc1 39.8 µM [inhibitor, single point], O=C(Cc1ccc(S(=O)(=O)N2CCOCC2)s1)N1CCN(c2cccc(C(F)(F)F)c2)CC1 15.8 µM [inhibitor, partial curve, poor fit], C/C(=N\NC(=O)c1n[nH]c2c1CCC2)c1ccco1 7.94 µM [inhibitor, partial curve, poor fit], CCN1CCc2c(sc(NC(=O)Nc3ccc(Cl)c(Cl)c3)c2C(N)=O)C1 39.8 µM [inhibitor, single point], O=C(C[C@H]1C[C@H](C(=O)N2CCOCC2)[C@@]2(CCC3CCCC3)c3[nH]c4cc(-c5ccco5)ccc4c3CCN2C1=O)NCCc1ccccn1 39.8 µM [inhibitor, single point], COc1cc(-c2nc3ccc(Cl)cn3c2Nc2ccc3c(c2)OCO3)ccc1O 28.2 µM [inhibitor, single point], Nc1nc(N)c(-c2cccc(C(F)(F)F)c2)c(Cc2cccc(C(F)(F)F)c2)n1 39.8 µM [inhibitor, partial curve, poor fit]

Potency, active:
c1ccc(-c2cn3nc4c(nc3n2)CCCC4)cc1 5.62 µM, CN(C)CCCNc1nc2cc(-c3cccc(C(F)(F)F)c3)sc2c(=O)n1C 20 µM, Cc1ccc(-c2ccc(CN3C(CC(C)C)C(=O)N(Cc4cn(CCC5OCCO5)nn4)CCS3(=O)=O)cc2)cc1 (stereo not given) 25.1 µM, O=C(Nc1cccc(Nc2ncc(Br)c(NCCc3cnc[nH]3)n2)c1)N1CCCC1 19.3 µM, C=CCNc1c(O)cc2c(O)c1C[C@@H](C)C[C@H](OC)[C@@H](O)[C@@H](C)C=C(C)[C@H](OC(N)=O)[C@@H](OC)C=CC=C(C)C(=O)N2 0.769 µM

Activity change, negative = inhibition, inactive:
O=C(NCCC(=O)N1CCCC1)c1ccccc1Cl 32.4%, CCOP(=O)(OCC)C(Nc1cccc(C(F)(F)F)c1)c1ccc(C)cc1 (stereo not given) -25.5%, COc1cccc(-c2nc(CCl)cs2)c1OC 16.5%, O=C(NCCCN1CCN(c2ccccc2F)CC1)C1COc2ccccc2C1 (stereo not given) -1.54%, COc1ccccc1N1CCN(C(CNS(=O)(=O)c2cccs2)c2cccnc2)CC1 (stereo not given) 4.69%, Cc1c(C=O)c2ccccn2c1C(=O)c1cccs1 9.15%, COc1ccc(/C=N/NC(=O)c2ccn[nH]2)cc1COc1ccc(F)cc1 13.9%, CC(C)C(=O)N(c1ccc2oc(=O)sc2c1)S(=O)(=O)c1ccccc1 -15.5%, CCCCc1nn2c(=O)cc(COC(=O)C(C)Oc3ccccc3)nc2s1 (stereo not given) -12.7%, Cc1ccc(NCN2C(=O)C(=O)c3ccccc32)nc1 -17.2%, O=C(CSC1=NS(=O)(=O)c2ccccc21)Nc1ccccc1 -0.527%, CCn1c(=O)c2sccc2n2c(CCC(=O)N3CCN(c4ccccc4OC)CC3)nnc12 -2.25%, COc1ccc(-c2cc(=O)c3c(O)c(OC)c(O)cc3o2)cc1 -31.7%, O=C(Nc1ccc(Cl)c(Cl)c1)c1cc(S(=O)(=O)N2CCN(c3cccc(Cl)c3)CC2)ccc1F 5.66%, CCc1c(OC(C)=O)c2ccccc2n(C)c1=O -7.33%, COc1ccc(OC(F)(F)F)cc1CC1(C)C(=O)Nc2ccc(-c3ccsc3)cc21 (stereo not given) -13.2%, Cc1ccc(C(NC(=O)/C=C\c2ccc3c(c2)OCO3)C(=O)Nc2ccc3c(c2)OCO3)cc1 (stereo not given) -6.53%, COc1ccc(-c2csc(=Nc3ccccc3)n2CCO)cc1 0.659%, CCC(C)Sc1ccc(-c2nc3ccc(Cl)cn3c2NCc2ccccc2)cc1 (stereo not given) 45.5%, COc1ccc(C2c3ccc(O)cc3Oc3ncn4nc(-c5ccccn5)nc4c32)cc1OC (stereo not given) -3%, Cc1ccc(/C=N/NC(=O)c2c(-c3ccccc3)noc2C)o1 4.73%
